# Results: publication PMC4336329 (PLoS ONE, 2015)
# About 2,200 (0.71%) of roughly 310,000 compounds showed an effect of 50% or more. The effect is printed as a negative number. The list shows a part of the results.
# Target: human ether-à-go-go-related gene (hERG) potassium channel (human, UniProt Q12809)
# Experiment: primary screen, population patch clamp on CHO cells stably expressing hERG
# human ether-à-go-go-related gene (hERG) potassium channel, sequence (Q12809 whole entry, looked up): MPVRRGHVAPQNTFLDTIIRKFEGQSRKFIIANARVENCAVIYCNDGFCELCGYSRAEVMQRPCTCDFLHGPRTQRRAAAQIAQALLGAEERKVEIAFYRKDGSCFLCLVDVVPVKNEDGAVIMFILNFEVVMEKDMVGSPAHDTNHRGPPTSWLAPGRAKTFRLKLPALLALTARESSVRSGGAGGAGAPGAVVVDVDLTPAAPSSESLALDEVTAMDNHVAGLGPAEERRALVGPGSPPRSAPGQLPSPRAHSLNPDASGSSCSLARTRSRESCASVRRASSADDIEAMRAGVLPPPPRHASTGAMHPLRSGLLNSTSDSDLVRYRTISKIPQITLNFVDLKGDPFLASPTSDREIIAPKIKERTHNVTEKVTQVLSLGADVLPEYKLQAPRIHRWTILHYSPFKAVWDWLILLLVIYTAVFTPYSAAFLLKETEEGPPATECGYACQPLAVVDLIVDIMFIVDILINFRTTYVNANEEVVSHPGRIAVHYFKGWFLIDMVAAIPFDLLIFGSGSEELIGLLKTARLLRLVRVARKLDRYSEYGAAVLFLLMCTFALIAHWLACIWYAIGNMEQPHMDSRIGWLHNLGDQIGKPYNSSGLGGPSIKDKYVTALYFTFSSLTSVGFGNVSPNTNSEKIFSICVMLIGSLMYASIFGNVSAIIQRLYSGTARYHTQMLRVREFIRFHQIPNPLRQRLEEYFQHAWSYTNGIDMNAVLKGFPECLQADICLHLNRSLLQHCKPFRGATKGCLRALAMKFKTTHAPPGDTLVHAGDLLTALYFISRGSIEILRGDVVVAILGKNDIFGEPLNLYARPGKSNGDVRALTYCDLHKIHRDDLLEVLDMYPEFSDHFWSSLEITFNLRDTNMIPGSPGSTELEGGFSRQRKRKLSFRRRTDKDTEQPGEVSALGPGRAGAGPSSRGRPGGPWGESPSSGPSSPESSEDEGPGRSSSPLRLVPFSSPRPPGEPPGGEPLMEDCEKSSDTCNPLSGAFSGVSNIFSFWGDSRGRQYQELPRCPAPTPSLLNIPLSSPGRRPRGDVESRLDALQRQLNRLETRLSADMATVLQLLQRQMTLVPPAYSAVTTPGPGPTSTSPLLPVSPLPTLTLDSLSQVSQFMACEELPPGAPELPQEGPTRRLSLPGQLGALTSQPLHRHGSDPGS
row,Structure (SMILES),"hERG current change (%, negative = inhibition) at 1uM"
1,COc1ccccc1N1C(=O)c2cccc3c(Cl)ccc(c23)C1=O,12.6%
2,O=C1C(Cc2ccc3[nH]ccc3c2)NC(=S)N1c1ccccc1 (centres unmarked),9.36%
3,C[C@]12CC(O)C3C(CCC4=CC(=O)CC[C@@]43C)C1CCC2c1csc(-c2ccccc2)n1 (some centres unmarked),8.92%
4,CN1CCN(c2ccc(S(=O)(=O)N3CCCCC3)cc2NC(=O)CSCc2ccccc2)CC1,6.17%
5,CC(=O)Nc1ccc2c(c1)OCCOCCOc1cc(NC(C)=O)ccc1OCCOCCOCCO2,9.04%
6,COc1ccc(OC)c(-c2cc(C(=O)Nc3c(C)nn(Cc4ccc(Cl)cc4)c3C)no2)c1,7.14%
7,O=C(Oc1ccc(/C=N/Nc2ccccc2)cc1)c1ccccc1,11.3%
8,CC(Oc1ccc(F)cc1)C(=O)N(CCC1=CCCCC1)c1c(N)n(Cc2ccccc2)c(=O)[nH]c1=O (centres unmarked),-6.58%
9,COc1cccc(NC(=O)CSC2=NN3CCCC(=O)N=C3S2)c1,11.2%
10,CC(=O)C1=C(O)C(=O)N(c2ccc(O)cc2)C1c1ccc(C)cc1 (centres unmarked),17.4%
11,CCC(C)(C(=O)NC1CCCCC1)N(C(=O)CC1NC(=O)NC1=O)c1c(C)n(C)n(-c2ccccc2)c1=O (centres unmarked),8.58%
12,N#CC1C(C#N)N2CCCN2C1c1ccc(Br)cc1 (centres unmarked),12.7%
13,CC(=O)c1cccc(NC(=O)c2ccc(OC3CSC3)cc2)c1,21.1%
14,CCN(CC)S(=O)(=O)c1ccc(N/N=C/c2ccccc2OCC(=O)O)c([N+](=O)[O-])c1,13.8%
15,CCc1nnc(NC(=O)CCC(=O)NC2CCCCCC2)s1,5.28%
16,CCN(CC(=O)Nc1ccc(Br)cc1)C(=O)c1nc2nc(C)cc(C)n2n1,-8.32%
17,O=S(=O)(c1ccc(Cl)cc1)N1CCCC1c1cccnc1 (centres unmarked),8.51%
18,CC(=O)Nc1ccc(Nc2nc(-c3cc4ccccc4oc3=O)cs2)cc1,2.82%
19,CC1c2[nH]c3ccccc3c2C[C@H]2C(=O)N(CCCN(C)C)CC(=O)N12 (some centres unmarked),13.3%
20,Cc1cccc2cc(CN(Cc3cccs3)C(=S)NCc3ccco3)c(=O)[nH]c12,11.6%
21,Nc1cc(N)nc(SCC(=O)NNC(=O)c2ccc(Cl)cc2)n1,-2.13%
22,Cc1ccc(/C=C/C(=O)OCC(=O)NCc2ccc(Cl)cc2)o1,-0.827%

row,Structure (SMILES),"hERG current change (%, negative = inhibition) at 1uM"
1,O=C1c2oc3ccccc3c(=O)c2C(c2cccc(O)c2)N1c1ccccn1 (centres unmarked),-2.4%
2,Cc1ccc(C)c(Cn2c(C(=O)O)c(C=O)c3ccccc32)c1,-8.11%
3,Cc1ccc(S(=O)(=O)N2CCC(C(=O)OCC(=O)NC3(C#N)CCCCC3)CC2)cc1C,8.05%
4,COCc1ccc(C(=O)N2CCCC(CNC(=O)c3ccc(F)cc3)C2)o1 (centres unmarked),6.99%
5,COc1ccc(-c2cc(C(F)(F)F)nc(SCC(=O)NCc3ccco3)n2)cc1OC,3.99%
6,CCOc1ccc(N2C(=O)CC(N3CCN(C(=O)c4ccco4)CC3)C2=O)cc1 (centres unmarked),-0.64%
7,COc1cc2c(cc1OC)CN(C(=S)Nc1ccccc1)CC2,7.72%
8,Cc1ccc(CS(=O)(=O)CCC(=O)NCCN2CCCC2)cc1,6.27%
9,CSc1ccc(CN2CCC(C(=O)NCc3ccc(C)cc3)CC2)cc1.O=C(O)C(=O)O,-76.1%
10,CCCn1c(=S)[nH]c2sc3c(c2c1=O)CCCC3,7.58%
11,COC(=O)c1ccc(CN2CCCC(C(=O)c3ccccc3OC)C2)cc1 (centres unmarked),-6.6%
12,CN(C(=O)COC(=O)c1n[nH]c2ccccc12)c1ccccc1,11.2%
13,C/C(=C\c1ccco1)C1C(C#N)=C(N)Oc2n[nH]c(-c3ccc(C)cc3)c21 (centres unmarked),15.8%
14,COc1ccc(/C=C(/NC(=O)c2ccc(OC)c(OC)c2)C(=O)NCCCn2ccnc2)cc1,15.5%
15,COc1ccccc1-c1nnc(SCC(=O)N2CCC(C)CC2)o1,5.73%
16,O=C(NC1C2CC3CC(C2)CC1C3)c1ccc(Br)o1 (centres unmarked),3.13%
17,CC(=O)N1c2ccc(S(=O)(=O)NCCC(=O)NCCc3ccc(Cl)cc3)cc2CC1C (centres unmarked),5.01%
18,CC(=O)Nc1ccc(NC(=O)c2cc(-c3cc(C)c(C)cc3O)n[nH]2)cc1,12.7%
19,COc1cccc(Oc2nnnn2-c2ccccc2)c1,3.16%
20,CCc1[nH]nc2c1C(c1ccc(Br)s1)C(C#N)=C(N)O2 (centres unmarked),7.25%
21,CSc1nc2ccc(S(N)(=O)=O)cc2s1,15%
22,Cc1snc(S(=O)(=O)/C(C#N)=N/Nc2cccc(C(F)(F)F)c2)c1C#N,5.29%
